# Laboratory results from the supplement of paper PMC8728848.
# The other results are listed elsewhere or left out.
# Tests used:
# Assay in all cases: glycan array binding signal (z-score within array); higher = stronger binding
# Details in all cases: glycan notation: IUPAC condensed, linker removed; mutation: H262T
# [1] = target: GlcNAc(a1-3)Gal(b1-4)GlcNAc
# Summary of the method: (§1)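 The binding signal is a Z-score computed within each array. Data were drawn from 3228 arrays in the Consortium for Functional Glycomics database, restricted to those with a known protein sequence. Scores were averaged over arrays of the same protein sequence at different concentrations or buffers, and over linkers, and negative values can be taken as non-binding.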
# [2] = target: GlcNAc(a1-4)Gal(b1-3)GlcNAc
# Summary of the method: as §1
# [3] = target: GlcNAc(a1-4)Gal(b1-4)GalNAc
# Summary of the method: as §1
# [4] = target: GlcNAc(a1-4)Gal(b1-4)GlcNAc
# Summary of the method: as §1
# [5] = target: GlcNAc(a1-4)Gal(b1-4)GlcNAc(b1-3)Gal(b1-4)Glc
# Summary of the method: as §1
# [6] = target: GlcNAc(a1-4)Gal(b1-4)GlcNAc(b1-3)Gal(b1-4)GlcNAc
# Summary of the method: as §1
# [7] = target: GlcNAc(a1-4)Gal(b1-4)GlcNAc(b1-3)Gal(b1-4)GlcNAc(b1-3)Gal(b1-4)GlcNAc
# Summary of the method: as §1
# [8] = target: GlcNAc(a1-4)Gal(b1-4)GlcNAc(b1-3)Gal(b1-4)[Fuc(a1-3)]GlcNAc(b1-3)Gal(b1-4)[Fuc(a1-3)]GlcNAc
# Summary of the method: as §1
# [9] = target: GlcNAc(a1-6)Gal(b1-4)GlcNAc
# Summary of the method: as §1
# [10] = target: GlcNAc(b1-2)Gal(b1-3)GalNAc
# Summary of the method: as §1
# [11] = target: GlcNAc(b1-2)Man(a1-3)[GlcNAc(b1-2)Man(a1-6)]Man(b1-4)GlcNAc(b1-4)GlcNAc
# Summary of the method: as §1
# [12] = target: GlcNAc(b1-2)Man(a1-3)[GlcNAc(b1-2)Man(a1-6)]Man(b1-4)GlcNAc(b1-4)[Fuc(a1-6)]GlcNAc
# Summary of the method: as §1
# [13] = target: GlcNAc(b1-2)Man(a1-3)[GlcNAc(b1-4)][GlcNAc(b1-2)Man(a1-6)]Man(b1-4)GlcNAc(b1-4)GlcNAc
# Summary of the method: as §1
# [14] = target: GlcNAc(b1-2)Man(a1-3)[GlcNAc(b1-4)][GlcNAc(b1-2)Man(a1-6)]Man(b1-4)GlcNAc(b1-4)[Fuc(a1-6)]GlcNAc
# Summary of the method: as §1
# [15] = target: GlcNAc(b1-2)[GlcNAc(b1-4)]Man(a1-3)[GlcNAc(b1-2)Man(a1-6)]Man(b1-4)GlcNAc(b1-4)GlcNAc
# Summary of the method: as §1
# [16] = target: GlcNAc(b1-2)[GlcNAc(b1-4)]Man(a1-3)[GlcNAc(b1-4)][GlcNAc(b1-2)Man(a1-6)]Man(b1-4)GlcNAc(b1-4)GlcNAc
# Summary of the method: as §1
# [17] = target: GlcNAc(b1-2)[GlcNAc(b1-4)]Man(a1-3)[GlcNAc(b1-4)][GlcNAc(b1-2)[GlcNAc(b1-6)]Man(a1-6)]Man(b1-4)GlcNAc(b1-4)GlcNAc
# Summary of the method: as §1
# [18] = target: GlcNAc(b1-2)[GlcNAc(b1-4)]Man(a1-3)[GlcNAc(b1-4)][GlcNAc(b1-2)[GlcNAc(b1-6)]Man(a1-6)]Man(b1-4)GlcNAc(b1-4)[Fuc(a1-6)]GlcNAc
# Summary of the method: as §1
# [19] = target: GlcNAc(b1-2)[GlcNAc(b1-6)]Man(a1-6)[GlcNAc(b1-2)Man(a1-3)]Man(b1-4)GlcNAc(b1-4)GlcNAc
# Summary of the method: as §1
# [20] = target: GlcNAc(b1-2)[GlcNAc(b1-6)]Man(a1-6)[GlcNAc(b1-2)Man(a1-3)]Man(b1-4)GlcNAc(b1-4)[Fuc(a1-6)]GlcNAc
# Summary of the method: as §1
# [21] = target: GlcNAc(b1-2)[GlcNAc(b1-6)]Man(a1-6)[GlcNAc(b1-4)][GlcNAc(b1-2)Man(a1-3)]Man(b1-4)GlcNAc(b1-4)GlcNAc
# Summary of the method: as §1
# [22] = target: GlcNAc(b1-3)Fuc
# Summary of the method: as §1
# [23] = target: GlcNAc(b1-3)Gal
# Summary of the method: as §1
# [24] = target: GlcNAc(b1-3)Gal(b1-3)GalNAc
# Summary of the method: as §1
# [25] = target: GlcNAc(b1-3)Gal(b1-4)Glc
# Summary of the method: as §1
# [26] = target: GlcNAc(b1-3)Gal(b1-4)GlcNAc
# Summary of the method: as §1
# [27] = target: GlcNAc(b1-3)Gal(b1-4)GlcNAc(b1-2)Man(a1-3)[GlcNAc(b1-3)Gal(b1-4)GlcNAc(b1-2)Man(a1-6)]Man(b1-4)GlcNAc(b1-4)GlcNAc
# Summary of the method: as §1
# [28] = target: GlcNAc(b1-3)Gal(b1-4)GlcNAc(b1-2)Man(a1-3)[GlcNAc(b1-3)Gal(b1-4)GlcNAc(b1-2)Man(a1-6)]Man(b1-4)GlcNAc(b1-4)[Fuc(a1-6)]GlcNAc
# Summary of the method: as §1
# [29] = target: GlcNAc(b1-3)Gal(b1-4)GlcNAc(b1-2)[GlcNAc(b1-3)Gal(b1-4)GlcNAc(b1-6)]Man(a1-6)[GlcNAc(b1-3)Gal(b1-4)GlcNAc(b1-2)Man(a1-3)]Man(b1-4)GlcNAc(b1-4)GlcNAc
# Summary of the method: as §1
# [30] = target: GlcNAc(b1-3)Gal(b1-4)GlcNAc(b1-3)Gal(b1-4)GlcNAc
# Summary of the method: as §1
# [31] = target: GlcNAc(b1-3)Gal(b1-4)GlcNAc(b1-3)Gal(b1-4)GlcNAc(b1-2)Man(a1-3)[GlcNAc(b1-3)Gal(b1-4)GlcNAc(b1-3)Gal(b1-4)GlcNAc(b1-2)Man(a1-6)]Man(b1-4)GlcNAc(b1-4)GlcNAc
# Summary of the method: as §1
# [32] = target: GlcNAc(b1-3)Gal(b1-4)GlcNAc(b1-3)Gal(b1-4)GlcNAc(b1-2)Man(a1-3)[GlcNAc(b1-3)Gal(b1-4)GlcNAc(b1-3)Gal(b1-4)GlcNAc(b1-2)Man(a1-6)]Man(b1-4)GlcNAc(b1-4)[Fuc(a1-6)]GlcNAc
# Summary of the method: as §1
# [33] = target: GlcNAc(b1-3)Gal(b1-4)GlcNAc(b1-3)Gal(b1-4)GlcNAc(b1-2)[GlcNAc(b1-3)Gal(b1-4)GlcNAc(b1-3)Gal(b1-4)GlcNAc(b1-6)]Man(a1-6)[GlcNAc(b1-3)Gal(b1-4)GlcNAc(b1-3)Gal(b1-4)GlcNAc(b1-2)Man(a1-3)]Man(b1-4)GlcNAc(b1-4)[Fuc(a1-6)]GlcNAc
# Summary of the method: as §1
# [34] = target: GlcNAc(b1-3)Gal(b1-4)GlcNAc(b1-3)Gal(b1-4)GlcNAc(b1-3)Gal(b1-4)GlcNAc(b1-2)Man(a1-3)[GlcNAc(b1-3)Gal(b1-4)GlcNAc(b1-3)Gal(b1-4)GlcNAc(b1-3)Gal(b1-4)GlcNAc(b1-2)Man(a1-6)]Man(b1-4)GlcNAc(b1-4)GlcNAc
# Summary of the method: as §1
# [35] = target: GlcNAc(b1-3)Gal(b1-4)GlcNAc(b1-3)Gal(b1-4)GlcNAc(b1-3)Gal(b1-4)GlcNAc(b1-2)Man(a1-3)[GlcNAc(b1-3)Gal(b1-4)GlcNAc(b1-3)Gal(b1-4)GlcNAc(b1-3)Gal(b1-4)GlcNAc(b1-2)Man(a1-6)]Man(b1-4)GlcNAc(b1-4)[Fuc(a1-6)]GlcNAc
# Summary of the method: as §1
# [36] = target: GlcNAc(b1-3)Gal(b1-4)GlcNAc(b1-3)Gal(b1-4)GlcNAc(b1-3)Gal(b1-4)GlcNAc(b1-2)[GlcNAc(b1-3)Gal(b1-4)GlcNAc(b1-3)Gal(b1-4)GlcNAc(b1-3)Gal(b1-4)GlcNAc(b1-6)]Man(a1-6)[GlcNAc(b1-3)Gal(b1-4)GlcNAc(b1-3)Gal(b1-4)GlcNAc(b1-3)Gal(b1-4)GlcNAc(b1-2)Man(a1-3)]Man(b1-4)GlcNAc(b1-4)[Fuc(a1-6)]GlcNAc
# Summary of the method: as §1
# [37] = target: GlcNAc(b1-3)Gal(b1-4)GlcNAc(b1-3)Gal(b1-4)GlcNAc(b1-3)Gal(b1-4)GlcNAc(b1-3)Gal(b1-4)GlcNAc(b1-2)Man(a1-3)[GlcNAc(b1-3)Gal(b1-4)GlcNAc(b1-3)Gal(b1-4)GlcNAc(b1-3)Gal(b1-4)GlcNAc(b1-3)Gal(b1-4)GlcNAc(b1-2)Man(a1-6)]Man(b1-4)GlcNAc(b1-4)GlcNAc
# Summary of the method: as §1
# [38] = target: GlcNAc(b1-3)Gal(b1-4)GlcNAc(b1-3)Gal(b1-4)GlcNAc(b1-3)Gal(b1-4)GlcNAc(b1-3)Gal(b1-4)GlcNAc(b1-2)Man(a1-3)[GlcNAc(b1-3)Gal(b1-4)GlcNAc(b1-3)Gal(b1-4)GlcNAc(b1-3)Gal(b1-4)GlcNAc(b1-3)Gal(b1-4)GlcNAc(b1-2)Man(a1-6)]Man(b1-4)GlcNAc(b1-4)[Fuc(a1-6)]GlcNAc
# Summary of the method: as §1
binder,measurement,setting,value
MGL6A (Homo sapiens) (protein) MTRTYENFQYLENKVKVQGFKNGPLPLQSLLQRLCSGPCHLLLSLGLGLLLLVIICVVGFQNSKFQRDLVTLRTDFSNFTSNTVAEIQALTSQGSSLEETIASLKAEVEGFKQERQAVHSEMLLRVQQLVQDLKKLTCQVATLNNNGEEASTEGTCCPVNWVEHQDSCYWFSHSGMSWAEAEKYCQLKNAHLVVINSREEQNFVQKYLGSAYTWMGLSDPEGAWKWVDGTDYATGFQNWKPGQPDDWQGHGLGGGEDCAHFTPDGRWNDDVCQRPYHWVCEAGLGQTSQESH,glycan array binding signal (z-score),[1],-0.174
same,glycan array binding signal (z-score),[2],-0.167
same,glycan array binding signal (z-score),[3],-0.177
same,glycan array binding signal (z-score),[4],-0.173
same,glycan array binding signal (z-score),[5],-0.171
same,glycan array binding signal (z-score),[6],-0.17
same,glycan array binding signal (z-score),[7],-0.175
same,glycan array binding signal (z-score),[8],-0.166
same,glycan array binding signal (z-score),[9],-0.176
same,glycan array binding signal (z-score),[10],-0.165
same,glycan array binding signal (z-score),[11],-0.168
same,glycan array binding signal (z-score),[12],-0.174
same,glycan array binding signal (z-score),[13],-0.176
same,glycan array binding signal (z-score),[14],-0.177
same,glycan array binding signal (z-score),[15],-0.174
same,glycan array binding signal (z-score),[16],-0.167
same,glycan array binding signal (z-score),[17],-0.175
same,glycan array binding signal (z-score),[18],-0.175
same,glycan array binding signal (z-score),[19],-0.172
same,glycan array binding signal (z-score),[20],-0.173
same,glycan array binding signal (z-score),[21],-0.175
same,glycan array binding signal (z-score),[22],-0.169
same,glycan array binding signal (z-score),[23],-0.178
same,glycan array binding signal (z-score),[24],-0.166
same,glycan array binding signal (z-score),[25],-0.172
same,glycan array binding signal (z-score),[26],-0.176
same,glycan array binding signal (z-score),[27],-0.174
same,glycan array binding signal (z-score),[28],-0.168
same,glycan array binding signal (z-score),[29],-0.091
same,glycan array binding signal (z-score),[30],-0.179
same,glycan array binding signal (z-score),[31],-0.171
same,glycan array binding signal (z-score),[32],-0.168
same,glycan array binding signal (z-score),[33],-0.164
same,glycan array binding signal (z-score),[34],-0.164
same,glycan array binding signal (z-score),[35],-0.166
same,glycan array binding signal (z-score),[36],-0.162
same,glycan array binding signal (z-score),[37],-0.173
same,glycan array binding signal (z-score),[38],-0.15
